Assays:
[1] = test system: Jurkat cells; experiment: Mitochondrial localization of Bad in THC-stimulated Jurkat cells, confocal microscopy; conditions: 10 μM THC versus vehicle
[2] = test system: Jurkat cell line (Mek/30); experiment: THC-induced apoptosis in Jurkat cells inducibly expressing constitutively active MEK
[3] = test system: Jurkat cells; experiment: Raf-1/MEK/ERK signaling in THC-treated Jurkat cells, Western blot; assay type: cell-based, human
[4] = test system: Jurkat cells; experiment: CBD-induced apoptosis in Jurkat cells, TUNEL and Wright-Giemsa staining; assay type: cell-based, human
[5] = test system: Con A-induced autoimmune hepatitis; experiment: Con A-induced autoimmune hepatitis in mice; assay type: in vivo, C57BL/6 mice; conditions: CBD about 50 mg/kg i.p.
[6] = test system: Jurkat cells; experiment: Activation of the caspase cascade in Jurkat cells, Western blot; assay type: cell-based, human
[7] = test system: SEB-induced activation of Vβ8+ T cells; set-up: species or system C57BL/6 mice; conditions: mouse, in vivo
[8] = cannabinoid antagonist alone (about 2 μM SR141716, about 4 μM SR144528)

CCCCCc1cc(O)c2c(c1)OC(C)(C)[C@@H]1CCC(C)=C[C@@H]21 [THC, Δ9-tetrahydrocannabinol]
association of Bad with mitochondria [1]: strong association
DNA fragmentation ([2]; THC alone, absence of doxycycline): unequivocal induction
apoptosis of cells ([2]; THC in the absence of doxycycline): ~50%
levels of phosphorylation of MEK ([3]; 10 μM THC): diminished
phosphorylation of ERK1/2 ([3]; 10 μM THC): largely decreased
Raf-1 expression ([3]; 10 μM THC alone): very pronounced reduction
phospho-p38 or phospho-JNK ([3]; THC): none of the THC concentrations tested induced alterations

C=C(C)[C@@H]1CCC(C)=C[C@H]1c1c(O)cc(CCCCC)cc1O [CBD, cannabidiol]
morphology of Jurkat cells (Wright-Giemsa) ([4]; CBD after pretreatment with SR144528): significantly fewer signs of apoptosis
morphology of Jurkat cells (Wright-Giemsa) ([4]; about 5.0 μM CBD): majority of the Jurkat cells displayed classical morphological features of apoptosis
cannabidiol-induced apoptosis of Jurkat cells in presence of CB1 antagonist ([4]; about 5 μM CBD, 16 h): unable to prevent
apoptosis of Jurkat cells (TUNEL) ([4]; about 5.0 μM CBD, 16 h, vehicle 3.5%): 83.5%
apoptosis of Jurkat cells (TUNEL) ([4]; about 5.0 μM CBD, pre-exposed to CB2-selective antagonist SR144528): 18.7%
liver damage (hematoxylin-eosin staining) ([5]; 48 h after Con A challenge): significantly reduced
plasma AST levels ([5]; ConA 12.5 mg/kg i.v., 6, 12, 24 and 48 h): marked decrease
CBD concentration leading to activation of the caspase cascade [6]: ≥ 2.5 µM
CBD-mediated induction of the caspase cascade in presence of CB2 antagonist SR144528 [6]: significantly prevent
Vβ8+ T cells in lymph node [7]: 12.8%
absolute SEB reactive Vβ8+ T cell numbers [7]: dose dependent decrease
popliteal lymph node cellularity [7]: dose dependent decrease

SR144528 [reference compound]
Raf-1 expression [3, 8]: little effect

Cc1c(C(=O)NN2CCCCC2)nn(-c2ccc(Cl)cc2Cl)c1-c1ccc(Cl)cc1 [SR141716A, reference compound]
Raf-1 expression [3, 8]: little effect
